# Assay results reported in PubChem BioAssay AID1631 (National Center for Advancing Translational Sciences (NCATS), 2009).
# Screen size: about 260,000 compounds; about 890 (0.34%) were called active. The inconclusive results got no clear call from the source; some entries with a clear call stand among them for comparison. Calls come from the whole dose curve; as a rule, active = well fitted activation curve with a large enough effect; inconclusive = small, poorly fitted or top-dose-only effect; inactive = no such curve, though single readings can be large or run the other way. Potencies of inconclusive entries are left out as doubtful fits.
# Biological target: Pyruvate kinase PKM (Homo sapiens) (UniProt P14618)
# Chain of UniProt P14618 (P14618 whole entry, looked up, canonical isoform): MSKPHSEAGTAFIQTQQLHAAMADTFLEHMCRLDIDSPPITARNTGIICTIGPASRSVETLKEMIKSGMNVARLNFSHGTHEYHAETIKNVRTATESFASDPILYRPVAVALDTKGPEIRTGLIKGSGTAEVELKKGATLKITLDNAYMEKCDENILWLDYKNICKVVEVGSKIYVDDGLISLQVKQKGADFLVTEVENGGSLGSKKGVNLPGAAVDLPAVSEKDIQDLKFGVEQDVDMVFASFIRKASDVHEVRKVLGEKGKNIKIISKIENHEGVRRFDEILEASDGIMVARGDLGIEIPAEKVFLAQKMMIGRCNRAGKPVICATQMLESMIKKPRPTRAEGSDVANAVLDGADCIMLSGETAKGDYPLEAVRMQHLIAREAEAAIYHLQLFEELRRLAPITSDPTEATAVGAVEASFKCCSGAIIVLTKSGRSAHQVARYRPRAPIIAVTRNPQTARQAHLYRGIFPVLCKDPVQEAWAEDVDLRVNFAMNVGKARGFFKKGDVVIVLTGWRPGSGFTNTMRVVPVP
# Assay: qHTS Assay for Activators of Human Muscle isoform 2 Pyruvate Kinase; note: nearly all actives have a fitted effect of over 55% in size
# Settings: purified PKM2, Kinase-Glo ATP luminescence; Potency: activation; activation: at 57.5 µM (top of the series), 0% is enzyme alone, no compound
# Method in brief: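 Purified hPK-M2 (>95%) run at intermediate activity with 0.1 mM ADP and 0.5 mM PEP in 50 mM imidazole pH 7.2, KCl, MgCl2; 1 h room temperature. ATP formed read by Kinase-Glo luminescence; normalized to uninhibited and no-enzyme controls.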
# % is set by controls: 0 for no effect and ±100 for the full control effect; potency is the fitted concentration of half-maximal effect; tags give direction and shape of the fitted curve.
SMILES,Potency,activation
Cc1ccc(C)c(S(=O)(=O)Nc2cccc(-n3cnnn3)c2)c1,active: 14.1 µM,
CCOC(=O)C(=Cc1ccc(-n2cncn2)cc1)C(=O)OCC,,inactive: 5.03%
CC(=O)Nc1cccc(NC(=O)c2cc(-c3cccnc3)nc3ccc(Cl)cc23)c1,,inactive: -2.61%
O=C(COc1ccc2c(c1)oc(=O)c1ccccc12)N[C@@H](Cc1c[nH]c2ccccc12)C(=O)O,,inactive: 4.72%
CCOc1ccc(NC(=S)N(CCc2c(C)[nH]c3ccc(C)cc23)Cc2ccco2)cc1,,inactive: -18.8%
CCOC(=O)c1c(C)[nH]c(C(=O)/C(C#N)=C/c2ccc(OCC)cc2)c1C,,inactive: -3.92%
COc1ccc(N=C2S/C(=C\c3ccc(N4CCOCC4)o3)C(=O)N2CCc2c[nH]c3ccccc23)cc1,active: 3.16 µM,
CCCc1c(NC(=O)Nc2ccc(Cl)cc2Cl)cnn1-c1ccccc1,"inconclusive [rising, single point]",
Cc1ccc(S(=O)(=O)N2CCC(=O)N(CCOCc3ccccc3)CC2)cc1,"inconclusive [rising, partial curve]",
COc1ccc(C(=O)NCCN2C(=O)S/C(=C\c3cccnc3)C2=O)cc1[N+](=O)[O-],active: 3.55 µM,
CC1=NN(c2ccccc2)C(=O)C1C(=O)c1ccccc1 (configuration not stated),"inconclusive [rising, single point]",
C/C(=N\NC(=O)C(=O)Nc1ccc(C)c(Cl)c1)c1ccncc1,"inconclusive [rising, single point]",
COc1cccc(CNc2ccc(Br)cn2)c1O,"inconclusive [rising, single point]",
Cc1ccc(S(=O)(=O)NCC(=O)NCc2cc(=O)n(C)c(=O)n2C)cc1C,,inactive: -1.8%
COc1ccc(C(=O)CN2C(=O)c3ccccc3S2(=O)=O)cc1Br,,inactive: -0.0176%
Cc1ccc(S(=O)(=O)N2CCN(C(=O)CCN3C(=O)c4ccccc4C3=O)CC2)cc1C,active: 5.62 µM,
Cc1cccc(CNC(=O)C2CCC(=O)N(C3CCCCCC3)C2)c1 (configuration not stated),,inactive: -0.135%
CCOC(=O)c1c(-c2ccc(C)o2)csc1NC(=O)CN1CCOCC1,"inconclusive [rising, partial curve]",
CS(=O)(=O)Nc1cccc(C2=NN(S(=O)(=O)c3ccccc3)C(c3ccco3)C2)c1 (configuration not stated),active: 22.4 µM,
COc1ccc(N2CCN(C(=O)Cn3nnc(-c4cccs4)n3)CC2)cc1,"inconclusive [rising, single point]",
CC[n+]1c(C)sc2c(C)cc(C)cc21,"inconclusive [rising, single point]",
O=C(COc1ccc([N+](=O)[O-])cc1)NCCc1nc2ccccc2[nH]1,"inconclusive [rising, partial curve]",
Cn1c(/C(C#N)=C/c2ccc(-c3ccc(S(N)(=O)=O)cc3)o2)nc2ccccc21,"inconclusive [rising, single point]",
CCOC(=O)CSc1nc2c(c(-c3ccc(C)o3)c1C#N)CCCC2,"inconclusive [rising, single point]",

SMILES,Potency,activation
O=C(c1cc(S(=O)(=O)N2CCOCC2)ccc1Cl)N1CCN(c2ccccn2)CC1,"inconclusive [rising, single point]",
O=S(=O)(c1cccc2cccnc12)N1CCN(Cc2ccc3c(c2)OCO3)CC1,"inconclusive [rising, single point]",
COc1cc2c(cc1OC)C(c1ccc(-c3ccc(Cl)cc3Cl)o1)=NCC2,,inactive: 9.52%
COc1ccc(S(=O)(=O)Nc2ccc(CC#N)cc2)cc1,"inconclusive [rising, single point]",
COc1ccc(-n2nnc3c(=O)n(CC(=O)Nc4cc(C)on4)cnc32)cc1,"inconclusive [rising, single point]",
O=C(COC(=O)CCc1nc2ccccc2s1)Nc1ncc(Cl)cc1Cl,,inactive: 5.64%
CC(=O)c1c(C)[nH]c(C(=O)Nc2ccc(S(=O)(=O)N(C)C)cc2)c1C,active: 7.08 µM,
N#C/C(=C\c1cccnc1)C(=O)Nc1cccc(Cl)c1,active: 5.62 µM,
COc1ccc(OCC(O)CNS(=O)(=O)c2cccc(Cl)c2)cc1 (configuration not stated),"inconclusive [rising, partial curve]",
O=C(O)c1ccc2c(c1)OCCO2,,inactive: 2.91%
O=C1c2cccc(OCC(=O)N3CCCc4ccccc43)c2CCN1Cc1ccccc1,"inconclusive [rising, partial curve]",
O=C(N/N=C/c1cccc([N+](=O)[O-])c1)c1cc(-c2ccc3c(c2)OCO3)n[nH]1,"inconclusive [rising, single point]",
C/C(=N\NC(=O)C1CC1)c1ccc(NC(=O)c2ccc(Br)o2)cc1,,inactive: -3.86%
Cc1ccc(-c2nnc3ccc(SCC(=O)NCc4ccco4)nn23)cc1,"inconclusive [rising, single point]",
Cc1ccc(O)c(C(=O)c2cc(C#N)c(=O)n(Cc3ccccc3)c2)c1,"inconclusive [rising, partial curve]",
O=C(C1CC1)N1CCc2cc(Br)cc(S(=O)(=O)NCC3COc4ccccc4O3)c21 (configuration not stated),"inconclusive [rising, partial curve]",
Cc1cc(Br)ccc1SCC(=O)OCC(=O)N1CCN(C(=O)c2ccco2)CC1,"inconclusive [rising, single point]",
C=CCSc1nc2sc(C)c(C)c2c(=O)[nH]1,"inconclusive [rising, single point]",
Cc1nc(Cl)cc(N/N=C/c2ccc(O)cc2O)n1,,inactive: -0.0959%
O=C(/C=C/c1ccco1)N1CCN(c2ccc(F)cc2)CC1,"inconclusive [rising, partial curve]",
Cc1ccccc1C(=O)Nc1ccc2c(C#N)c3nc4ccccc4nc3n2c1,,inactive: 2.35%
COc1ccc(-c2cc(C(=O)O)nc3ccc4ccccc4c23)cc1OC,,inactive: 2.16%
O=C(C1CCCN(S(=O)(=O)c2cccc3cccnc23)C1)N1CCN(c2ccccc2F)CC1 (configuration not stated),"inconclusive [rising, full curve]",
CSc1nnc(-c2ccco2)n1-c1ccccc1,"inconclusive [rising, single point]",

SMILES,Potency,activation
COc1ccccc1Cn1nc(C(=O)O)c2ccccc2c1=O,"inconclusive [rising, partial curve]",
O=C(O)c1[nH]c2ccc(Cl)cc2c1CC(=O)N1CCN(c2ccccc2)CC1,"inconclusive [rising, single point]",
Cc1cc(F)ccc1NS(=O)(=O)c1c(C)nc2scc(C)n2c1=O,"inconclusive [rising, partial curve]",
Cc1ccc(CN2CCN(CC(=O)NCc3ccc(Cl)cc3)C2=O)cc1,,inactive: 3.7%
COC(=O)c1cc2c(C(F)(F)F)nn(C)c2s1,"inconclusive [rising, single point]",
O=C(O)c1ccc(NC(=S)NC(=O)c2ccc(-c3ccccc3)cc2)cc1,"inconclusive [rising, single point]",
COc1ccc(S(=O)(=O)N(C(C)=O)c2ccc(OC(C)=O)c3ccccc23)cc1[N+](=O)[O-],"inconclusive [rising, partial curve]",
COc1cccc(C(=O)NN2C(=O)C3C4C=CC(O4)C3C2=O)c1 (configuration not stated),"inconclusive [rising, single point]",
O=C(Nc1ccc2oc(-c3ccccc3F)nc2c1)c1ccc2c(c1)OCCO2,"inconclusive [rising, partial curve]",
CN(C)c1ccc(CNS(=O)(=O)c2ccc3c(c2)C(C)(C)C(=O)N3C)cc1,"inconclusive [rising, single point]",
Cc1csc(SCC(=O)Nc2ccc(S(=O)(=O)N3CCCC3)cc2)n1,active: 20 µM,
NC(=S)N/N=C/c1ccc(-c2ccc([N+](=O)[O-])cc2)o1,,inactive: -4.46%
Cc1nc(CSc2nsc(/C=C/N(C)C)c2C#N)cs1,"inconclusive [rising, partial curve]",
CCC(=O)N1CCc2cc(Br)cc(S(=O)(=O)CC(=O)OC)c21,"inconclusive [rising, single point]",
COc1ccc(N2CCN(C(=O)CCC(=O)N3CC(C)Oc4ccccc43)CC2)cc1 (configuration not stated),"inconclusive [rising, single point]",
[O-][n+]1onc2c3ccnnc3ccc21,"inconclusive [rising, single point]",
CCN(CC)Cc1cc(CC(C(N)=O)C(N)=O)ccc1OC,"inconclusive [rising, partial curve]",
N/C(=N\N=C\c1ccc2c(c1)OCO2)SC1CC(=O)N(c2ccc(C(=O)O)cc2)C1=O (configuration not stated),active: 35.5 µM,
Cc1ccc(S(=O)(=O)N2CCN(c3nc(C)c4c(c3C#N)CC(C)(C)OC4)CC2)cc1,"inconclusive [rising, single point]",
O=C(N/N=C/c1ccc(O)c(O)c1)C1c2ccccc2Oc2ccccc21,"inconclusive [rising, partial curve]",
Cc1noc(/C=C/c2ccco2)c1S(=O)(=O)N1CCC(C(=O)N2CCc3ccccc3C2)CC1,active: 20 µM,
CCOc1ccc(CNC(=S)NCc2ccc(OCC)cc2)cc1,,inactive: 22%
N#Cc1ccc(C(=O)Nc2cccc3cccnc23)c(F)c1,"inconclusive [rising, full curve]",
O=C(Nc1cccc(NC(=O)c2ccc(-c3ccc(Br)cc3)o2)c1)c1ccccc1,,inactive: -2.01%
